Values belong to the binder of their own block, whether it stands above or below them.
What was measured:
[1] = target: T1, Low-density lipoprotein receptor-related protein 6 (LRP6), human, on cells (human, UniProt O75581 20-1613); assay: cell-based or functional assay
[2] = target: T2, Ephrin type-A receptor 2 (EphA2), human, on cells (human, UniProt P29317 24-976); assay: apparent KD, flow cytometry, curve fit; cell model HEK293-EphA2 (cells also carry LRP6, bound by the E34N19 arm)
T2 construct: whole, on cells; also called guide antigen
T2 sequence (P29317 24-976): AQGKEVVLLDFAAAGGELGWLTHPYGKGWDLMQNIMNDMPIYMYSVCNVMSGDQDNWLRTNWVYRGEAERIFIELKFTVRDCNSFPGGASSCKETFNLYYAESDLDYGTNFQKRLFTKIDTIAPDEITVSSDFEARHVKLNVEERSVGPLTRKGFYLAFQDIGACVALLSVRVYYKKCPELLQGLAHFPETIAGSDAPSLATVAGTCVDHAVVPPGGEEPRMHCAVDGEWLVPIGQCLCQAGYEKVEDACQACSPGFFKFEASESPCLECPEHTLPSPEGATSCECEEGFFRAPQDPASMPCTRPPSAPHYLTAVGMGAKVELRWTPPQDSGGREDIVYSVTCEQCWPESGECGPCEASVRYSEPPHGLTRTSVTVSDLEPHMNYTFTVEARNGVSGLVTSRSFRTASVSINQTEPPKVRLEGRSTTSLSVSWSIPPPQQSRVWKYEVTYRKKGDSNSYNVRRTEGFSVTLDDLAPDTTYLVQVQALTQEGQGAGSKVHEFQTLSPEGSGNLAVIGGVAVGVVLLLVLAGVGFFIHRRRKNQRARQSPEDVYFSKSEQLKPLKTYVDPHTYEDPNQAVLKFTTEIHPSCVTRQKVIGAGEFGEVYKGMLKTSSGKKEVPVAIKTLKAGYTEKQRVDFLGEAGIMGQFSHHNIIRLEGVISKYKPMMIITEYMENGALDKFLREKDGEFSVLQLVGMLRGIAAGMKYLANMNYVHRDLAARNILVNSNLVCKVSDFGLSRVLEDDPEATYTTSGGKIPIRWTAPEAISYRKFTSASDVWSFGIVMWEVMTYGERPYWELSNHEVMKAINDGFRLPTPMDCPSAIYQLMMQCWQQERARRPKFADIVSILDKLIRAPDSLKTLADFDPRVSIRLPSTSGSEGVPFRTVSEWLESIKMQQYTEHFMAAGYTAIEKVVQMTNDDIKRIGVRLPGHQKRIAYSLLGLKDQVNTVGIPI
Method: (§1) The apparent antibody binding affinity was measured on target cells by FACS as described (An, Zhu). Briefly, 3×10⁵ cells were incubated with varying concentrations of antibodies in final 1 ml of FACS buffer. […] After 1 hr incubation, cells were washed and analyzed by FACS as described above. The apparent KD was determined by a curve fit method using MFI values as described (Benedict, An, Zhu).

[3] = target: T2, Ephrin type-A receptor 2 (EphA2), …; assay: apparent KD, flow cytometry, curve fit; cell model HEK293-EphA2#8 (cells also carry LRP6, bound by the E34N19 arm)
Method: as §1
The impact of the guide antigen density on the apparent KD of the bispecific was also evaluated (Table 2). For the ALCAM-guided bispecific, increasing guide antigen density concurs with increasing potency. […] Other mechanisms beyond avidity-driven apparent KD improvement may account for the bispecific phenomenon that we have observed. […] To test this hypothesis, LRP6 occupancy was investigated by the bispecific and monospecific on HEK293 cells. […] At the same concentration, only about 10% of LRP6 was occupied by the monospecific E34N19. The concentration required to achieve 50% occupancy of the effector LRP6 is about 50 pM for the bispecific but 20 nM for the monospecific, a difference of greater than 400-fold (FIG. 8D).

[4] = target: T2, Ephrin type-A receptor 2 (EphA2), …; assay: apparent KD, flow cytometry, curve fit; cell model HEK293-EphA2^Int (cells also carry LRP6, bound by the E34N19 arm)
Method: as §1

[5] = target: T2, Ephrin type-A receptor 2 (EphA2), …; assay: apparent KD, flow cytometry, curve fit; cell model HEK293-EphA2^low (cells also carry LRP6, bound by the E34N19 arm)
Method: as §1

[6] = target: T2, Ephrin type-A receptor 2 (EphA2), …; assay: apparent KD, flow cytometry, curve fit; cell model HEK293-EphA2^high (cells also carry LRP6, bound by the E34N19 arm)
Method: as §1

[7] = target: T1, Low-density lipoprotein …; assay: cell-based or functional assay; remark: listed apart in the source
[8] = target: T3, Activated leukocyte cell adhesion molecule (ALCAM), on cells (human, UniProt Q13740 28-583); assay: apparent KD, flow cytometry, curve fit; cell model HEK293 (cells also carry LRP6, bound by the E34N19 arm)
T3 construct: whole, on cells; also called guide antigen
T3 sequence (looked up): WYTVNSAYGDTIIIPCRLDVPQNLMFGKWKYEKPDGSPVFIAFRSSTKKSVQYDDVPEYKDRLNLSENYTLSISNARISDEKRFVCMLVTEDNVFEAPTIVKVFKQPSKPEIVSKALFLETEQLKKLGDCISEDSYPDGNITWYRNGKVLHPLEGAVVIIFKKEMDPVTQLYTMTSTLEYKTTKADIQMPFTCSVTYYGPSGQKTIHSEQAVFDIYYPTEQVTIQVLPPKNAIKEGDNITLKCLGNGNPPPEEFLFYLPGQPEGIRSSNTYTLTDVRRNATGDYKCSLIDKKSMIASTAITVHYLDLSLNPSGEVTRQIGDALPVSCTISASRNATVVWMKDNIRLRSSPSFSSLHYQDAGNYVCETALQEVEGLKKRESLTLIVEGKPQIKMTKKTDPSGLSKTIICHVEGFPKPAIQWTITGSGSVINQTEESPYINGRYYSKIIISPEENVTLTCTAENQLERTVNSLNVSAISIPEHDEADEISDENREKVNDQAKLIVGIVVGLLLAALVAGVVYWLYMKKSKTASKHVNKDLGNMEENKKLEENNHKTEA
Method: FIGS. 8A-8D depict the results illustrating improved binding and Wnt signaling blockade of guided anti-LRP6 bsAbs. […] HEK293 cells were incubated with varying concentration of H3/E34N19 (A) or PD32/E34N19 (B) TaFv-Fc and analyzed by flow cytometry. Apparent KD values were calculated based on the non-linear curve fittings. FIG. 8C depicts STF reporter assays on HEK293 cells. E34N19 IgG and E34N19/H3 bsIgG were evaluated for their β-catenin reporter inhibition efficacies on Wnt3a-transfected HEK293 cells. […] Values represent mean±SD for n=3. FIG. 8D depicts LRP6 occupancy when bound by bispecific vs, monospecific antibodies. HEK293 cells were incubated with the either the bispecific H3/E34N19 or the monospecific E34N19, and unoccupied LRP6 binding sites were detected by biotin-labeled E34N19 scFv-Fc. Normalized MFI from unoccupied sites over total is used to calculate the percent of the unoccupied effector antigen LRP6, from which the occupancy was calculated (100%−% unoccupied). Incubation with the anti-guide antibody only (H3) has no effect on the occupancy of the effector antigen (LRP6). […]
The apparent antibody binding affinity was measured on target cells by FACS as described (An, Zhu). […] After 1 hr incubation, cells were washed and analyzed by FACS as described above. The apparent KD was determined by a curve fit method using MFI values as described (Benedict, An, Zhu).

[9] = target: T3, Activated leukocyte cell adhesion …; assay: apparent KD, flow cytometry, curve fit; cell model HEK293-ALCAM^Int (cells also carry LRP6, bound by the E34N19 arm)
Method: as §1

[10] = target: T3, Activated leukocyte cell adhesion …; assay: apparent KD, flow cytometry, curve fit; cell model HEK293-ALCAM^low (cells also carry LRP6, bound by the E34N19 arm)
Method: as §1

[11] = target: T4, Intercellular adhesion molecule 1 (ICAM-1), human, on cells (human, UniProt P05362 28-532); assay: apparent KD, flow cytometry, curve fit; cell model HEK293-ICAM-1^Int (cells also carry LRP6, bound by the E34N19 arm)
T4 construct: whole, on cells; also called guide antigen
T4 sequence (P05362 28-532): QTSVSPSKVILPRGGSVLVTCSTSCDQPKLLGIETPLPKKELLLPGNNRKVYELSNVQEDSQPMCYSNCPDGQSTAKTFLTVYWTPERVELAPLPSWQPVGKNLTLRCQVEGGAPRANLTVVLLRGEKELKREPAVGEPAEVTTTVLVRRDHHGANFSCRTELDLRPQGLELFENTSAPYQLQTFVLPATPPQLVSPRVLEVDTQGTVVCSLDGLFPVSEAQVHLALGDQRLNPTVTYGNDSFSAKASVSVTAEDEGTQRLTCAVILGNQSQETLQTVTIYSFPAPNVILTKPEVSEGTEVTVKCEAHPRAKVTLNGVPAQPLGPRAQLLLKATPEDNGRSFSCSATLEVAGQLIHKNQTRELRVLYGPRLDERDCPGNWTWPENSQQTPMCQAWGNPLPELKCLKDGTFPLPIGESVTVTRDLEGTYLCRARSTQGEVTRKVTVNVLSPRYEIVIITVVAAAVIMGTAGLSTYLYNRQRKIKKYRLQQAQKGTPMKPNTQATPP
Method: as §1

[12] = target: T4, Intercellular adhesion molecule 1 …; assay: apparent KD, flow cytometry, curve fit; cell model HEK293-ICAM-1^low (cells also carry LRP6, bound by the E34N19 arm)
Method: as §1

T1 sequence (O75581 20-1613): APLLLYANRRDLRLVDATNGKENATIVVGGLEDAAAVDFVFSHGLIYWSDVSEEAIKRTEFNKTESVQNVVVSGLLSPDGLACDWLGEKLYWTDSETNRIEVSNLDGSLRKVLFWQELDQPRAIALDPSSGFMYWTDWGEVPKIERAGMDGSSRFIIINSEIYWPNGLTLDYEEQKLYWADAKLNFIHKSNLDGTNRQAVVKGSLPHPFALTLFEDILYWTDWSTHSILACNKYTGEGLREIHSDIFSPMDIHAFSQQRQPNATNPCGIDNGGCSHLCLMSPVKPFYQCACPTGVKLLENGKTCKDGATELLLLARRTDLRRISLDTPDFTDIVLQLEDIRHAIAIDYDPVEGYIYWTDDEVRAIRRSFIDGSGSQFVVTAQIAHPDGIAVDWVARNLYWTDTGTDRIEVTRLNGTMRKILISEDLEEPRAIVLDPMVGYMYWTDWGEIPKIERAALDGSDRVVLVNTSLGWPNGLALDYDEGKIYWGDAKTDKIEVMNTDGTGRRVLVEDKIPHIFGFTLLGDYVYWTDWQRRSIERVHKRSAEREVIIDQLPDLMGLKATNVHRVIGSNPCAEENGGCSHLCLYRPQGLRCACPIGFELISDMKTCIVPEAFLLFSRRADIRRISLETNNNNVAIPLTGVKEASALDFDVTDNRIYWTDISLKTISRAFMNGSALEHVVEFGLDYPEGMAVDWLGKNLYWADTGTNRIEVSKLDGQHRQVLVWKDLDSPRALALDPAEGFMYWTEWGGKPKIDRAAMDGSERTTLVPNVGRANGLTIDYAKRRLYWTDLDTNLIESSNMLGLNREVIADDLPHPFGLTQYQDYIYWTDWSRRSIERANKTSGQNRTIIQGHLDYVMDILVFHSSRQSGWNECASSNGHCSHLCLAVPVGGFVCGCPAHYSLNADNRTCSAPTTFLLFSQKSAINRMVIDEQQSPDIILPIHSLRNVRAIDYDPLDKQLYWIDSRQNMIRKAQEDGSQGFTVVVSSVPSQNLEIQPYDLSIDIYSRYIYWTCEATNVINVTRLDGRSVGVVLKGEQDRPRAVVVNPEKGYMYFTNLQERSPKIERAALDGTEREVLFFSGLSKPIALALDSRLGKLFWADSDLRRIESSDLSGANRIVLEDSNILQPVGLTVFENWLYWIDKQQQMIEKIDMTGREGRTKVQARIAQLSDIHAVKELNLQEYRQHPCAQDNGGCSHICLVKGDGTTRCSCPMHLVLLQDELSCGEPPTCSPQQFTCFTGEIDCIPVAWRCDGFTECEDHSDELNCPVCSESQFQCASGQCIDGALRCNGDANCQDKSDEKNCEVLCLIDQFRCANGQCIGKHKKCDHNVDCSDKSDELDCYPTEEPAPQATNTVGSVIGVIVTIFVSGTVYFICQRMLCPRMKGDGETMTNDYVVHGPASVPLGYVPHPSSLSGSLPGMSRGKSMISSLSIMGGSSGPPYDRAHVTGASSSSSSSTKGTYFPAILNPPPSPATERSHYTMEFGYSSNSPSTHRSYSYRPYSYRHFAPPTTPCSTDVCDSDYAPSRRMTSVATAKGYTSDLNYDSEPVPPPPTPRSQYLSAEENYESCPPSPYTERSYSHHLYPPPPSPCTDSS

- IC50 (pM), anti-Wnt signaling activity, STF reporter; cell model HEK293 [1]: 1350 pM
- IC50 (pM), anti-Wnt signaling activity, STF reporter; cell model HEK293-EphA2 [1]: 4.15 pM
- IC50 (pM), anti-Wnt signaling activity, STF reporter; cell model HEK293-EphA2#8 [1]: 8.36 pM
- IC50 (pM), anti-Wnt signaling activity, STF reporter; cell model HEK293-EphA2^Int [1]: 12.7 pM
- IC50 (pM), anti-Wnt signaling activity, STF reporter; cell model HEK293-EphA2^high [1]: 6.55 pM
- IC50 (pM), anti-Wnt signaling activity, STF reporter; cell model HEK293-EphA2^low [1]: 24.4 pM
- Kd [2]: 0.787 nM
- Kd [3]: 1.12 nM
- Kd [4]: 4.73 nM
- Kd [5]: 18.1 nM
- Kd [6]: 1.55 nM
B1: RYR/E34N19 TaFv-Fc (bispecific antibody)
chain: QVQLQESGGGLVQPGGSLRLSCAASGFTFSSYSMNWVRQAPGKGLEWVSYISSSSSTIYYADSVKGRFTISRDNAKNSLYLQMNSLRAEDTAVYYCARYRLPDFWSGYPNYGMDVWGQGTTVTVSSGGGGSGGGGSGGGGSQSVLTQPPSVSGAPGQRVTISCTGSSSNIGAGYDVHWYQQLPGTAPKLLIYGNSNRPSGVPDRFSGSKSGTSASLAITGLQAEDEADYYCQSYDSSLSGHVVFGGGTKLTVLGGGGSGGGGSGGGGSGGGGSGGGGSQVNLRESGGGLVQPGGSLRLSCAASGFTFSSYAMSWVRQAPGKGLEWVSAISGSGGSTYYADSVKGRFTISRDNSKNTLYLQMNSLRAEDTAVYYCAKVRGHGGNSGWVDYWGQGTLVTVSSGGGGSGGGGSGGGGSQSVLTQDPAVSVALGQTVKITCQGDSLRTYYTSWYQQRPGQAPILVLYANTHRPSSIPDRFSGSSSGTTASLTITGAQAEDEADYYCNSRDSSGNYLFGGGTKLTVL[letters of human IgG1 Fc not shown]
notes: domain: Fc; Tandem scFv-Fc; also called anti-EphA2/LRP6E3E4; anti-EphA2/LRP6 bispecific

- fold potency against monospecific E34N19 scFv-Fc, Wnt3a-induced STF reporter, A549 [7]: > 100 fold
- IC50 (pM), anti-Wnt signaling activity, STF reporter; cell model HEK293 [1]: 15.1 pM
- IC50 (pM), anti-Wnt signaling activity, STF reporter; cell model HEK293-ALCAM^Int [1]: 67.8 pM
- IC50 (pM), anti-Wnt signaling activity, STF reporter; cell model HEK293-ALCAM^low [1]: 141 pM
- Kd [8]: 0.028 nM
- Kd [9]: 0.0452 nM
- Kd [10]: 0.136 nM
B2: H3/E34N19 TaFv-Fc (bispecific antibody)
chain: QVQLVESGGGLVQPGGSLRLSCAASGFTFSSYAMSWVRQAPGKGLEWVSAISGSGGSTYYADSVKGRFTISRDNSKDTLYLQMNSLRAEDTAVYYCASRSLLDYWGQGTLVTVSSGGGGSGGGGSGGGGSNFMLTQNPAVSVALGQTVRITCQGDSLRSYYASWYQQKPGQAPLLVIYGKNNRPSGIPDRFSGSSSGNTASLTITGAQAEDEADYYCNSRDSSGNPVFGGGTKVTVLGGGGSGGGGSGGGGSGGGGSGGGGSQVNLRESGGGLVQPGGSLRLSCAASGFTFSSYAMSWVRQAPGKGLEWVSAISGSGGSTYYADSVKGRFTISRDNSKNTLYLQMNSLRAEDTAVYYCAKVRGHGGNSGWVDYWGQGTLVTVSSGGGGSGGGGSGGGGSQSVLTQDPAVSVALGQTVKITCQGDSLRTYYTSWYQQRPGQAPILVLYANTHRPSSIPDRFSGSSSGTTASLTITGAQAEDEADYYCNSRDSSGNYLFGGGTKLTVL[letters of human IgG1 Fc not shown]
notes: domain: Fc; Tandem scFv-Fc from pFUSE-T-scFv-Fc: guide scFv, (Gly4Ser)5, anti-LRP6 scFv, Fc; also called H/6 TaFv-Fc; ALCAM-guided bispecific

- IC50 (pM), anti-Wnt signaling activity, STF reporter; cell model HEK293 [1]: 1180 pM
- IC50 (pM), anti-Wnt signaling activity, STF reporter; cell model HEK293-ICAM-1^Int [1]: 3.76 pM
- IC50 (pM), anti-Wnt signaling activity, STF reporter; cell model HEK293-ICAM-1^high [1]: 1.13 pM
- IC50 (pM), anti-Wnt signaling activity, STF reporter; cell model HEK293-ICAM-1^low [1]: 16.9 pM
- Kd [11]: 0.843 nM
- Kd [12]: 0.871 nM
B3: M10A12/E34N19 TaFv-Fc (bispecific antibody)
chain: QVQLVESGGGVVQPGRSLRLSCTASGFTFSSYGMHWVRQAPGKGLEWVAVISYDGSNKYYADSVKGRFTISRDNSKNTLYLQMNSLRAEDTAVYYCARGGRYSSNWFSYYYYGMDVWGQGTTVTVSSGGGGSGGGGSGGGGSSELTQDPAVSVALGQTVRITCQGDSLRSYYASWYQQKPGQAPLLVIYGENNRPSGIPDRFSGSSSGNTAFLTISRVEAGDEADYYCQVWDSSSDHPGVVFGGGTKVTVLGGGGSGGGGSGGGGSGGGGSGGGGSQVNLRESGGGLVQPGGSLRLSCAASGFTFSSYAMSWVRQAPGKGLEWVSAISGSGGSTYYADSVKGRFTISRDNSKNTLYLQMNSLRAEDTAVYYCAKVRGHGGNSGWVDYWGQGTLVTVSSGGGGSGGGGSGGGGSQSVLTQDPAVSVALGQTVKITCQGDSLRTYYTSWYQQRPGQAPILVLYANTHRPSSIPDRFSGSSSGTTASLTITGAQAEDEADYYCNSRDSSGNYLFGGGTKLTVL[letters of human IgG1 Fc not shown]
notes: domain: Fc; Tandem scFv-Fc; also called ICAM-1-guided bispecific

- IC50 (pM), anti-Wnt signaling activity, STF reporter; cell model HEK293 [1]: 119 pM
- Kd [8]: 0.578 nM
B4: PD32/E34N19 TaFv-Fc (bispecific antibody)
chain: QVQLQESGGGLVQPGGSLRLSCAASGFTFSSYALSWVRQAPGKGLEWVSAISGSGGSTYYAGSVKGRFTISRDNSKNTLYLQMNSLRAEDTAVYYCAKGLIASHWGQGTLVTVSSGGGGSGGGGSGGGGSSELTQDPAVSVALGQTVRITCQGDSLRSYYASWYQQKPGQAPVLVIYGKNNRPSGIPDRFSGSSSGNTASLTITGAQAEDEADYYCNSRDSSGIHLVFGGGTKLTVLGGGGSGGGGSGGGGSGGGGSGGGGSQVNLRESGGGLVQPGGSLRLSCAASGFTFSSYAMSWVRQAPGKGLEWVSAISGSGGSTYYADSVKGRFTISRDNSKNTLYLQMNSLRAEDTAVYYCAKVRGHGGNSGWVDYWGQGTLVTVSSGGGGSGGGGSGGGGSQSVLTQDPAVSVALGQTVKITCQGDSLRTYYTSWYQQRPGQAPILVLYANTHRPSSIPDRFSGSSSGTTASLTITGAQAEDEADYYCNSRDSSGNYLFGGGTKLTVL[letters of human IgG1 Fc not shown]
notes: domain: Fc; Tandem scFv-Fc
